# Assay results as given in article PMC4336329 (PLoS ONE, 2015).
# Among all 310,000 compounds or so, about 2,200 (0.71%) showed an effect of 50% or more. The effect is printed as a negative number. The list shows a part of the results.
# Molecular target: human ether-à-go-go-related gene (hERG) potassium channel (human, UniProt Q12809)
# Test: primary screen, population patch clamp on CHO cells stably expressing hERG
# Chain of human ether-à-go-go-related gene (hERG) potassium channel (Q12809 whole entry, looked up): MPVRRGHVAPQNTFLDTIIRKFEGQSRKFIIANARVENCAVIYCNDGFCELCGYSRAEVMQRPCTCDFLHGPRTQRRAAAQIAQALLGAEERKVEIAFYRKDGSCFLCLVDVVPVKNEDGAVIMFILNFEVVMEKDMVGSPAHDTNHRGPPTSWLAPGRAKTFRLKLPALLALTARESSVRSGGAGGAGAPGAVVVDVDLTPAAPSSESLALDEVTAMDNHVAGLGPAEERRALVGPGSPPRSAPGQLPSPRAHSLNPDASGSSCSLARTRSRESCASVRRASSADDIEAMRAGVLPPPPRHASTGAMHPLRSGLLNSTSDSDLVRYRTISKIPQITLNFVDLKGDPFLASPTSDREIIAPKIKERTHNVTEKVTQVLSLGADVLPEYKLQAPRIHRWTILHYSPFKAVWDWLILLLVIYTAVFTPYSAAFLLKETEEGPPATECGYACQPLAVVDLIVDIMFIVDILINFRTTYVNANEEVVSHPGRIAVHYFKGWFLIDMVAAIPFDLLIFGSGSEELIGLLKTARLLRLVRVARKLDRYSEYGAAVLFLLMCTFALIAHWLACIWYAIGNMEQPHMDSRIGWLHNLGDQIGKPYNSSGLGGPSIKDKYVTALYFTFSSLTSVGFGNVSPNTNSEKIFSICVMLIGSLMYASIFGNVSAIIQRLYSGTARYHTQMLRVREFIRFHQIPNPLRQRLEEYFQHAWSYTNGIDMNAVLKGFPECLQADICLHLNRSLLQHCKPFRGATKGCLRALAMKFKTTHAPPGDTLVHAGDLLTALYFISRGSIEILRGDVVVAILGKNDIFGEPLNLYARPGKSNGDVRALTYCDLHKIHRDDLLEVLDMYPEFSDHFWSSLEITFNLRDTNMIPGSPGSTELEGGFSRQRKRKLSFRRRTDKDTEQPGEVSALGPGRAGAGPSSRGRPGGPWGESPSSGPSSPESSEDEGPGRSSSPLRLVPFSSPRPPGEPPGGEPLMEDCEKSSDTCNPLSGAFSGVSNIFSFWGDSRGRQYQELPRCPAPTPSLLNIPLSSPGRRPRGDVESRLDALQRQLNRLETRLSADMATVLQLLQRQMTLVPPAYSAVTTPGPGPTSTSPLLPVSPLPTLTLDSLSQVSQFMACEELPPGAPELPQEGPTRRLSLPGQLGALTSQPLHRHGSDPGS
row,Compound,"hERG current change (%, negative = inhibition) at 1uM"
1,COc1cc(CCCN2C(=O)C(=O)NC[C@@H]2CC2CCCCC2)cc(OC)c1OC,10.3%
2,O=C(Oc1ccc(N2C(=O)CCC2=O)cc1)c1ccccc1Cl,0.271%
3,COc1ccc(C2CC(c3ccccc3)=NN2C(=O)CSc2ncccn2)cc1 (stereo not drawn),6.77%
4,CCOc1ccc(OCC(=O)OCc2csc(CC(=O)Nc3ccccc3C)n2)cc1,11.7%
5,COCCN(C(=S)Nc1c(C)cc(C)cc1C)C(C)c1cccs1 (stereo not drawn),-8.8%
6,Cc1[nH]n(C(N)=S)c(=O)c1N=Nc1cccc([N+](=O)[O-])c1C,11.3%
7,C=CCn1c(SCC(=O)Nc2ccc(C(=O)O)cc2)nc2sc(C)c(C)c2c1=O,15.8%
8,COc1cccc(/C=N/Nc2ncccc2[N+](=O)[O-])c1OC,9.28%
9,Cc1ccc(NC(=O)COC(=O)c2c(-c3ccccc3)noc2C)c(C)c1,5.79%
10,CCOC(=O)C1=C(C)N(c2ccccc2)C(=O)/C1=C\c1cccs1,15.3%
11,COc1cccc(C(=O)NCC(=O)N/N=C/c2ccc(OC(=O)c3cccs3)c(OC)c2)c1,1.01%
12,COc1ccc(C(c2c(C)n(C)n(-c3ccccc3)c2=O)c2c(C)n(C)n(-c3ccccc3)c2=O)cc1,9.52%
13,O=C(CN1C(=O)CCS(=O)(=O)c2ccccc21)Nc1cccc(F)c1,10.6%
14,Cc1c(C)c2ccc(OCC(=O)N3CCC(C(=O)O)CC3)cc2oc1=O,-5.78%
15,O=[N+]([O-])c1cccc(/C=C/c2nc[nH]c2[N+](=O)[O-])c1,10.8%
16,COc1ccccc1-c1cc(C(=O)Nc2c(C)n(C)n(-c3ccccc3)c2=O)no1,-0.922%
17,COc1cccc(NS(=O)(=O)c2nc3nc(C)cc(C)n3n2)c1,1.02%
18,CCN(CC(=O)Nc1ccccc1OC)C(=O)CSCc1c(C)noc1C,16.1%
19,CCN(CC(=O)Nc1c(F)cccc1F)C(=O)c1cccc(S(=O)(=O)N2CCN(c3ccccc3)CC2)c1,0.792%
20,Cc1c(Cl)c([N+](=O)[O-])nn1CC(=O)NCCCN1CCOCC1,7.41%
21,Cc1nc(CSc2ccc(Cl)cc2)cc(NCc2ccccc2)n1,10.9%
22,COc1ccc(CCNC(=O)C(=O)NCC2OCCN2S(=O)(=O)c2ccc(C)cc2)cc1OC (stereo not drawn),0.639%

row,Compound,"hERG current change (%, negative = inhibition) at 1uM"
1,CN(C)S(=O)(=O)N1CCN(S(=O)(=O)N2CCOCC2)CC1,14.4%
2,COc1cc(=O)n2c(n1)SCCC2,10.8%
3,Cc1ccc(S(=O)(=O)Nc2c(C(=O)O)[nH]c3ccccc23)c(C)c1,8.66%
4,C=COCCNC(=O)C1CC(=O)N(c2ccc(C)cc2)C1 (stereo not drawn),-0.0701%
5,COCc1c(C(C)C)nc(C(C)C)c(/C=C/[C@@H](O)C[C@@H](O)CC(=O)[O-])c1-c1ccc(F)cc1.[Na+],12.4%
6,O=S(=O)(NCc1ccccn1)c1cc(C(F)(F)F)ccc1Cl,3.3%
7,O=C(c1ccccc1)c1ccccn1,6.25%
8,CC(C)(C)c1ccc(OCC(=O)OCCNC(=O)c2cccnc2)cc1.Cl,11.5%
9,Cc1nn(C(C)c2n[nH]c(=S)n2-c2ccc(F)cc2)c(C)c1[N+](=O)[O-] (stereo not drawn),4.22%
10,CC(C)c1csc(CN2CCN(Cc3ccc(F)cc3)C(CCO)C2)n1 (stereo not drawn),-4.26%
11,COc1ccccc1NC(=S)N1CCC(NC(=O)NC23CC4CC(CC(C4)C2)C3)CC1,11.7%
12,[Br-].c1ccc(Cn2c(-c3ccccc3)c[n+]3c2SCCC3)cc1,-17.8%
13,O=C(CSCc1ccc([N+](=O)[O-])cc1)NC1CC2CCC1C2 (stereo not drawn),4.2%
14,COc1ccc2nc(NNC(=O)C3COc4ccccc4O3)sc2c1 (stereo not drawn),-1.9%
15,CCOc1ccc(CCNS(=O)(=O)c2cnc[nH]2)cc1OCC,20.2%
16,Cc1nc(SCC(=O)Nc2ccccc2)c2oc3ccccc3c2n1,13.3%
17,O=C(NCC1([N+](=O)[O-])CN(C(=O)c2ccccc2)CN(C(=O)c2ccccc2)C1)c1ccccc1,8.76%
18,CC(C)(C)OC(=O)N1CCC(NC(=O)c2[nH]cnc2C(=O)N[C@@H](Cc2ccccc2)C(=O)OCc2ccccc2)CC1,14.6%
19,Cc1cc(C)c(S(=O)(=O)c2ccc(Cl)cc2)c(=O)[nH]1,9.23%
20,CCOc1cc(/C=N/N=C(\N)c2nonc2N)cc(Br)c1OCc1cccc2ccccc12,16.5%
21,COc1cccc(CNS(=O)(=O)c2ccc3c(c2)CCN3C(=O)C2CC2)c1,5.68%
22,Cc1cc(=O)oc2c(C)c(OC(C)C(=O)NCCCn3ccnc3)ccc12 (stereo not drawn),3.87%

row,Compound,"hERG current change (%, negative = inhibition) at 1uM"
1,NNC(=O)[C@H]1C[C@@H]1c1ccccc1,6.36%
2,O=C(O)c1ccc(CS(=O)c2cccc(C(F)(F)F)c2)o1 (stereo not drawn),-12.2%
3,CC(O)Cc1cn([C@@H](CCCCN)C(=O)N2CCNCC2)nn1.Cl (stereo partly drawn),6.64%
4,COc1ccc(C(=O)NC(=S)N2CCOCC2)cc1OC,2.16%
5,N=C1/C(=C\c2ccc(OC(=O)c3ccco3)cc2)C(=O)N=C2SC(N3CCCCC3)=NN12,18.1%
6,CCC(C)NC(=O)c1cn(-c2cccc(C)n2)cn1 (stereo not drawn),-6.25%
7,C=CCn1c(=O)c(C(=O)OCC)c(O)c2ccccc21,11.1%
8,CCOC(=O)CCC(=O)Nc1ccc(S(=O)(=O)N2CCCC2)cc1,6.81%
9,Cn1c(C2CCCCC2)nc2c1c(=O)[nH]c(=O)n2Cc1ccccc1,2.82%
10,COc1ccc(OCc2nnc(SCC(=O)Nc3ccc(C)cc3)o2)cc1,17.6%
11,COc1ccc(NC(=O)c2ccccc2NC(=O)COc2ccccc2)cc1,-0.175%
12,FC(F)(F)C1CCCN(c2nsc3ccccc23)C1 (stereo not drawn),19.8%
13,CCOc1ccc2nc(NC(=O)Nc3ccccc3)sc2c1,4.57%
14,O=C(O)COCC(=O)N1CCc2c([nH]c3ccccc23)C1C(F)(F)F (stereo not drawn),15.2%
15,CCCn1c(=O)[nH]c(=O)c2c1nc(-c1ccccc1OC(F)F)n2CCOC,12.2%
16,CC(C)(CO)NCC(=O)Nc1cc(C(F)(F)F)cc(NC(=O)CNC(C)(C)CO)c1Cl,14.6%
17,CCc1cc(C(=O)Nc2ncccc2O)sc1C,6.02%
18,CC(C)C(=O)Nc1cc(=O)[nH]c2ncnn12,5.7%
19,Cc1ccc2cc3c(N)c(C(=O)N4CC(=O)Nc5ccccc54)sc3nc2c1,18.6%
20,CC(Nc1nc(-c2ccccc2O)nc2ccccc12)c1ccccc1 (stereo not drawn),8.76%
21,Cc1nc(-c2ccccc2)sc1C(=O)Nc1ccc(S(N)(=O)=O)cc1,13.1%
22,Br.CCCn1c(=N)n(CC(=O)O)c2ccccc21,-1.05%

row,Compound,"hERG current change (%, negative = inhibition) at 1uM"
1,Cc1cccc(NC(=S)NNC(=O)c2csc(C)c2)c1,5.34%
2,CCCCN(CCCC)C(=O)c1cn(CC)c2cc(N3CCN(C)CC3)c(F)cc2c1=O.Cl,9.42%
3,O=C(c1cccc(C(=O)N2CCC(O)(c3ccccc3)CC2)c1)N1CCC(O)(c2ccccc2)CC1,10%
4,Cn1ncc2c(Nc3ccccc3Cl)nc(Cl)nc21,4.37%
5,CCN(CCO)Cc1csc2c(Br)cccc12.Cl,-4.13%
6,CCOC(=O)c1ccccc1NC(=S)N1CCC(C)CC1,-4.05%
7,C[C@]12CCC(=O)C=C1CC[C@@H]1[C@@H]2CC[C@]2(C)C(=O)CC[C@@H]12,9.64%
8,CCn1nnnc1SCC(=O)N1c2ccccc2NC(=O)CC1C (stereo not drawn),9.79%
9,Cc1ccc(-c2csc(NC(=S)NC(=O)c3cccs3)n2)cc1,17.6%
10,CC(/C=N/NC(=O)c1sc(N)nc1C)=C\c1ccccc1,8.09%
11,CCCCOC(=O)NC1CCS(=O)(=O)C1 (stereo not drawn),17.9%
12,CCN(CC(=O)Nc1ccccc1C(F)(F)F)C(=O)CCOc1ccc(C)cc1,10.8%
13,COc1ccc(N(C(=O)Cn2nnc3ccccc32)C(C(=O)NCc2ccco2)c2cccnc2)cc1 (stereo not drawn),4.47%
14,Cc1ccc(NC(=O)CO/N=C(\N)c2nonc2N)cc1,13.3%
15,O=C(c1ccco1)N1CCc2ccccc21,5.88%
16,CCc1cccc(CC)c1-n1c(SCn2nnc3ccccc3c2=O)nnc1-c1cccnc1,-1.63%
17,COc1ccc(C(c2nnnn2C(C)C)N2CCN(C(=O)c3ccco3)CC2)cc1 (stereo not drawn),12.1%
18,O=c1cc(C(F)(F)F)[nH]c2c(C(F)(F)F)cccc12,12.5%
19,CCOCCCNC(=O)C(c1ccc(C)cc1)N(Cc1cccs1)C(=O)CNC(C)=O (stereo not drawn),-13.7%
20,COc1ccccc1NC(=O)C1CCCN(S(=O)(=O)c2ccc3[nH]c(=O)ccc3c2)C1 (stereo not drawn),-26.6%
21,COC(=O)Cc1c(C)nc2nc(NCc3ccccc3OC)[nH]n2c1=O,9.71%
